# Results as given in the supplement of paper PMC8728848.
# Some of the results follow.
# B1: Gal 4 (Canis lupus) (protein)
# chain: MAYVPAPGYQPTYNPTLPYNKPIPGGLSVGMSVYIQGITSEHMRRFCVNFVAGAHPGSDIAFHFNPRFDGWDKVVFNSHLGGKWGSEEKKRSMPFRKGTHFELVFMVLAEHYKVVVNGNPFYEFGHRLPLQLVTHLQVEGDVELQSINFIGGTQPLGQGPGHTQQQPSSLPTMEGPPVFNPPVPFRKRLQGGLTVRRTVIIKGFVPFTSKSFVINFMVESSGDLALHINPRLTEGLVVRNSCLNGSWGSEDRKLSYNPFIPGQFFDLSIRCGMDRFKVYANGQHLFDFSHRLLALQNVDMLEINGDVTLSYIQV
# Columns and labels:
# Experiment in all cases: glycan array binding signal (z-score within array); higher = stronger binding
# Settings in all cases: glycan notation: IUPAC condensed, linker removed
# [1] = biological target: GlcNAc(b1-6)Gal(b1-4)GlcNAc
# Outline: (§1)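 Negative Z-scores can be read as non-binding. The Z-score is calculated within each array and then averaged across arrays of one protein sequence at different concentrations or buffers and across linkers. Arrays, 3228 in all, were curated from the Consortium for Functional Glycomics database and kept only where the protein sequence was available.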
# GlcNAc(b1-6)GalNAc = biological target: GlcNAc(b1-6)GalNAc
# Outline: as §1
# GlcNAc3Prop(b1-4)GlcNAc = biological target: GlcNAc3Prop(b1-4)GlcNAc
# Outline: as §1
# [2] = biological target: GlcNAc6S(b1-3)Gal(b1-4)GlcNAc
# Outline: as §1
# Kdn(a2-3)Gal(b1-3)GalNAc = biological target: Kdn(a2-3)Gal(b1-3)GalNAc
# Outline: as §1
# Kdn(a2-3)Gal(b1-3)GlcNAc = biological target: Kdn(a2-3)Gal(b1-3)GlcNAc
# Outline: as §1
# Kdn(a2-3)Gal(b1-4)Glc = biological target: Kdn(a2-3)Gal(b1-4)Glc
# Outline: as §1
# Kdn(a2-3)Gal(b1-4)GlcNAc = biological target: Kdn(a2-3)Gal(b1-4)GlcNAc
# Outline: as §1
# [3] = biological target: Kdn(a2-3)Gal(b1-4)[Fuc(a1-3)]GlcNAc
# Outline: as §1
# Kdn(a2-6)Gal(b1-4)GlcNAc = biological target: Kdn(a2-6)Gal(b1-4)GlcNAc
# Outline: as §1
# [4] = biological target: Man(a1-2)Man(a1-2)Man(a1-3)Man
# Outline: as §1
# [5] = biological target: Man(a1-2)Man(a1-2)Man(a1-6)[Man(a1-3)]Man
# Outline: as §1
# Man(a1-2)Man(a1-3)Man = biological target: Man(a1-2)Man(a1-3)Man
# Outline: as §1
# [6] = biological target: Man(a1-2)Man(a1-3)[Man(a1-2)Man(a1-6)]Man
# Outline: as §1
# [7] = biological target: Man(a1-2)Man(a1-3)[Man(a1-2)Man(a1-6)]Man(a1-6)[Man(a1-2)Man(a1-2)Man(a1-3)]Man
# Outline: as §1
# [8] = biological target: Man(a1-2)Man(a1-3)[Man(a1-2)Man(a1-6)]Man(a1-6)[Man(a1-2)Man(a1-2)Man(a1-3)]Man(b1-4)GlcNAc(b1-4)GlcNAc
# Outline: as §1
# [9] = biological target: Man(a1-2)Man(a1-3)[Man(a1-6)]Man(a1-6)[Man(a1-2)Man(a1-3)]Man(b1-4)GlcNAc(b1-4)GlcNAc
# Outline: as §1
# [10] = biological target: Man(a1-2)Man(a1-6)[Man(a1-3)]Man(a1-6)[Man(a1-2)Man(a1-2)Man(a1-3)]Man
# Outline: as §1
# [11] = biological target: Man(a1-2)Man(a1-6)[Man(a1-3)]Man(a1-6)[Man(a1-2)Man(a1-2)Man(a1-3)]Man(b1-4)GlcNAc(b1-4)GlcNAc
# Outline: as §1
# Man(a1-3)[Man(a1-6)]Man = biological target: Man(a1-3)[Man(a1-6)]Man
# Outline: as §1
# [12] = biological target: Man(a1-3)[Man(a1-6)]Man(a1-6)[Man(a1-2)Man(a1-3)]Man(b1-4)GlcNAc(b1-4)GlcNAc
# Outline: as §1
# [13] = biological target: Man(a1-3)[Man(a1-6)]Man(a1-6)[Man(a1-3)]Man
# Outline: as §1
# [14] = biological target: Man(a1-3)[Man(a1-6)]Man(a1-6)[Man(a1-3)]Man(b1-4)GlcNAc(b1-4)GlcNAc
# Outline: as §1
# [15] = biological target: Man(a1-3)[Man(a1-6)]Man(b1-4)GlcNAc(b1-4)GlcNAc
# Outline: as §1
# Man(a1-6)Man = biological target: Man(a1-6)Man
# Outline: as §1
# Man(b1-4)GlcNAc = biological target: Man(b1-4)GlcNAc
# Outline: as §1
# Neu5Ac(a2-3)Gal = biological target: Neu5Ac(a2-3)Gal
# Outline: as §1
# [16] = biological target: Neu5Ac(a2-3)Gal(b1-3)GalNAc
# Outline: as §1
# [17] = biological target: Neu5Ac(a2-3)Gal(b1-3)GalNAc(b1-3)Gal(a1-4)Gal(b1-4)Glc
# Outline: as §1
# [18] = biological target: Neu5Ac(a2-3)Gal(b1-3)GalNAc(b1-4)[Neu5Ac(a2-3)]Gal(b1-4)Glc
# Outline: as §1
# [19] = biological target: Neu5Ac(a2-3)Gal(b1-3)GalNAc(b1-4)[Neu5Ac(a2-8)Neu5Ac(a2-3)]Gal(b1-4)Glc
# Outline: as §1
# [20] = biological target: Neu5Ac(a2-3)Gal(b1-3)GalNAc6S
# Outline: as §1
# [21] = biological target: Neu5Ac(a2-3)Gal(b1-3)GlcNAc
# Outline: as §1
# [22] = biological target: Neu5Ac(a2-3)Gal(b1-3)GlcNAc(b1-2)Man(a1-3)[Neu5Ac(a2-3)Gal(b1-3)GlcNAc(b1-2)Man(a1-6)]Man(b1-4)GlcNAc(b1-4)GlcNAc
# Outline: as §1
# [23] = biological target: Neu5Ac(a2-3)Gal(b1-3)GlcNAc(b1-3)Gal(b1-3)GlcNAc
# Outline: as §1
# [24] = biological target: Neu5Ac(a2-3)Gal(b1-3)GlcNAc(b1-3)Gal(b1-4)GlcNAc
# Outline: as §1
# [25] = biological target: Neu5Ac(a2-3)Gal(b1-3)GlcNAc(b1-3)GalNAc
# Outline: as §1
# [26] = biological target: Neu5Ac(a2-3)Gal(b1-3)GlcNAc6S
# Outline: as §1
# [27] = biological target: Neu5Ac(a2-3)Gal(b1-3)[Fuc(a1-4)]GlcNAc
# Outline: as §1
# [28] = biological target: Neu5Ac(a2-3)Gal(b1-3)[Fuc(a1-4)]GlcNAc(b1-3)Gal(b1-3)[Fuc(a1-4)]GlcNAc
# Outline: as §1
# [29] = biological target: Neu5Ac(a2-3)Gal(b1-3)[Fuc(a1-4)]GlcNAc(b1-3)Gal(b1-4)[Fuc(a1-3)]GlcNAc
# Outline: as §1
# [30] = biological target: Neu5Ac(a2-3)Gal(b1-3)[Neu5Ac(a2-3)Gal(b1-4)]GlcNAc
# Outline: as §1
# [31] = biological target: Neu5Ac(a2-3)Gal(b1-3)[Neu5Ac(a2-6)]GalNAc
# Outline: as §1
# Neu5Ac(a2-3)Gal(b1-4)Glc = biological target: Neu5Ac(a2-3)Gal(b1-4)Glc
# Outline: as §1
# [32] = biological target: Neu5Ac(a2-3)Gal(b1-4)GlcNAc
# Outline: as §1
# [33] = biological target: Neu5Ac(a2-3)Gal(b1-4)GlcNAc(b1-2)Man(a1-3)[GlcNAc(b1-2)Man(b1-4)GlcNAc(b1-2)Man(a1-6)]Man(b1-4)GlcNAc(b1-4)GlcNAc
# Outline: as §1
# [34] = biological target: Neu5Ac(a2-3)Gal(b1-4)GlcNAc(b1-2)Man(a1-3)[Neu5Ac(a2-6)Gal(b1-4)GlcNAc(b1-2)Man(a1-6)]Man(b1-4)GlcNAc(b1-4)GlcNAc
# Outline: as §1
# [35] = biological target: Neu5Ac(a2-3)Gal(b1-4)GlcNAc(b1-3)Gal
# Outline: as §1
# [36] = biological target: Neu5Ac(a2-3)Gal(b1-4)GlcNAc(b1-3)Gal(b1-3)GlcNAc
# Outline: as §1
# [37] = biological target: Neu5Ac(a2-3)Gal(b1-4)GlcNAc(b1-3)Gal(b1-4)GlcNAc
# Outline: as §1
# [38] = biological target: Neu5Ac(a2-3)Gal(b1-4)GlcNAc(b1-3)Gal(b1-4)GlcNAc(b1-3)Gal(b1-4)GlcNAc
# Outline: as §1
# [39] = biological target: Neu5Ac(a2-3)Gal(b1-4)GlcNAc(b1-3)Gal(b1-4)[Fuc(a1-3)]GlcNAc
# Outline: as §1
# [40] = biological target: Neu5Ac(a2-3)Gal(b1-4)GlcNAc(b1-3)GalNAc
# Outline: as §1
# [41] = biological target: Neu5Ac(a2-3)Gal(b1-4)GlcNAc(b1-6)[Gal(b1-3)]GalNAc
# Outline: as §1
# [42] = biological target: Neu5Ac(a2-3)Gal(b1-4)GlcNAc(b1-6)[Neu5Ac(a2-3)Gal(b1-3)]GalNAc
# Outline: as §1
# [43] = biological target: Neu5Ac(a2-3)Gal(b1-4)GlcNAc6S
# Outline: as §1
# [44] = biological target: Neu5Ac(a2-3)Gal(b1-4)[Fuc(a1-3)]GlcNAc
# Outline: as §1
# [45] = biological target: Neu5Ac(a2-3)Gal(b1-4)[Fuc(a1-3)]GlcNAc(b1-3)Gal
# Outline: as §1
binder,measurement,setting,value
B1,glycan array binding signal (z-score),[1],-0.155
same,glycan array binding signal (z-score),GlcNAc(b1-6)GalNAc,-0.153
same,glycan array binding signal (z-score),GlcNAc3Prop(b1-4)GlcNAc,-0.148
same,glycan array binding signal (z-score),[2],-0.11
same,glycan array binding signal (z-score),Kdn(a2-3)Gal(b1-3)GalNAc,-0.149
same,glycan array binding signal (z-score),Kdn(a2-3)Gal(b1-3)GlcNAc,-0.15
same,glycan array binding signal (z-score),Kdn(a2-3)Gal(b1-4)Glc,-0.152
same,glycan array binding signal (z-score),Kdn(a2-3)Gal(b1-4)GlcNAc,-0.154
same,glycan array binding signal (z-score),[3],-0.144
same,glycan array binding signal (z-score),Kdn(a2-6)Gal(b1-4)GlcNAc,-0.154
same,glycan array binding signal (z-score),[4],-0.152
same,glycan array binding signal (z-score),[5],-0.145
same,glycan array binding signal (z-score),Man(a1-2)Man(a1-3)Man,-0.142
same,glycan array binding signal (z-score),[6],-0.153
same,glycan array binding signal (z-score),[7],-0.148
same,glycan array binding signal (z-score),[8],-0.153
same,glycan array binding signal (z-score),[9],-0.143
same,glycan array binding signal (z-score),[10],-0.152
same,glycan array binding signal (z-score),[11],-0.145
same,glycan array binding signal (z-score),Man(a1-3)[Man(a1-6)]Man,-0.152
same,glycan array binding signal (z-score),[12],-0.15
same,glycan array binding signal (z-score),[13],-0.151
same,glycan array binding signal (z-score),[14],-0.149
same,glycan array binding signal (z-score),[15],-0.156
same,glycan array binding signal (z-score),Man(a1-6)Man,-0.148
same,glycan array binding signal (z-score),Man(b1-4)GlcNAc,-0.145
same,glycan array binding signal (z-score),Neu5Ac(a2-3)Gal,-0.152
same,glycan array binding signal (z-score),[16],-0.145
same,glycan array binding signal (z-score),[17],-0.152
same,glycan array binding signal (z-score),[18],-0.153
same,glycan array binding signal (z-score),[19],-0.155
same,glycan array binding signal (z-score),[20],-0.149
same,glycan array binding signal (z-score),[21],-0.144
same,glycan array binding signal (z-score),[22],-0.153
same,glycan array binding signal (z-score),[23],-0.153
same,glycan array binding signal (z-score),[24],-0.145
same,glycan array binding signal (z-score),[25],-0.159
same,glycan array binding signal (z-score),[26],-0.154
same,glycan array binding signal (z-score),[27],-0.146
same,glycan array binding signal (z-score),[28],-0.136
same,glycan array binding signal (z-score),[29],-0.138
same,glycan array binding signal (z-score),[30],-0.156
same,glycan array binding signal (z-score),[31],-0.151
same,glycan array binding signal (z-score),Neu5Ac(a2-3)Gal(b1-4)Glc,-0.131
same,glycan array binding signal (z-score),[32],-0.154
same,glycan array binding signal (z-score),[33],-0.153
same,glycan array binding signal (z-score),[34],-0.155
same,glycan array binding signal (z-score),[35],-0.158
same,glycan array binding signal (z-score),[36],-0.152
same,glycan array binding signal (z-score),[37],-0.155
same,glycan array binding signal (z-score),[38],-0.153
same,glycan array binding signal (z-score),[39],-0.153
same,glycan array binding signal (z-score),[40],-0.153
same,glycan array binding signal (z-score),[41],-0.147
same,glycan array binding signal (z-score),[42],-0.148
same,glycan array binding signal (z-score),[43],-0.141
same,glycan array binding signal (z-score),[44],-0.155
same,glycan array binding signal (z-score),[45],-0.153
